From PubChem BioAssay AID686978 (National Center for Advancing Translational Sciences (NCATS), 2013)
Screen size: about 420,000 compounds; about 64,000 (15%) were called active. The shares of active, inactive and inconclusive entries below differ from those in the screen. Calls come from the whole dose curve; as a rule, active = well fitted inhibition curve with a large enough effect; inconclusive = small, poorly fitted or top-dose-only effect; inactive = flat fitted curve, though single readings scatter. No potency is given beside an inconclusive call; the fits are too rough.

Assay: qHTS for Inhibitors of human tyrosyl-DNA phosphodiesterase 1 (TDP1): qHTS in cells in absence of CPT; note: nearly all actives have a fitted effect of over 55% in size
Settings: DT40 Tdp1-/- hTDP1 cells, no CPT, ATP luminescence, 48 h; activity change, negative = growth inhibition: at 46.2 µM (top of the series) unless noted
Summary of the method: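 Growth kinetics read by CellTiter-Glo luminescence after ≥48 hr at 37 °C. Cells: DT40 Tdp1-/- stably carrying human TDP1, 400 per well, compound exposure in the absence of CPT (DMSO vehicle).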
% is set by controls: 0 for no effect and ±100 for the full control effect; potency is the fitted concentration of half-maximal effect; tags give direction and shape of the fitted curve.

Structure (SMILES) | Potency | activity change, negative = growth inhibition
Cc1ccc(-c2cnc(NCc3c(F)cccc3Cl)n2C)cc1 | active: 23.1 µM | 
Cc1ccc(C)c(C(C)NC(=S)NC2CCCCC2)c1 (stereo unspecified) | inconclusive [inhibitor, single point] | 
COc1cccc(C2CC(OCCF)=CC(=O)O2)c1 (stereo unspecified) | inactive | 
Cc1ccc(S(=O)(=O)Nc2ccc(C(=O)N3CCOCC3)cc2)cc1 | inactive | 
O=C(C1CCC(=O)N(C2CC2)C1)N1CCN(c2cccc(Cl)c2)CC1 (stereo unspecified) | inactive | 
COc1cccc(C2=NN(C(=O)C3CC3)C(O)(C(F)(F)F)C2)c1 (stereo unspecified) | inconclusive [inhibitor, single point] | 
O=C(NCc1cccs1)c1cc2c(s1)-c1ccccc1OC2 | inconclusive [inhibitor, single point] | 
CCOC(=O)C(=NC1CCS(=O)(=O)C1)NNc1ccccc1Cl (stereo unspecified) | inactive | 
O=C(Nc1cccc2cccnc12)c1cc(F)c(F)cc1Cl | inconclusive [inhibitor, single point] | 
Cc1ccc(C)c(S(=O)(=O)N2CCCOC2CNC(=O)C(=O)NCc2ccco2)c1 (stereo unspecified) | inconclusive [inhibitor, single point] | 
CCc1ccc(-c2cc(C(=O)N/N=C/c3ccccn3)[nH]n2)cc1 | inconclusive [inhibitor, single point] | 
COc1ccc(/C=N/n2c(=O)[nH]c3c([nH]c4ccc(Br)cc43)c2=O)cc1CN1CCOCC1 | inconclusive [inhibitor, single point] | 
CCC(C(=O)NCCN1CCOCC1)n1c2ccccc2c2nc(=O)cc(C)n21 (stereo unspecified) | inactive | 
Cc1nc(-c2cccc(S(=O)(=O)N3CCC(C(=O)NCc4ccccc4)CC3)c2)no1 | inconclusive [inhibitor, partial curve] | 
O=C(Cc1ccc([N+](=O)[O-])cc1)Nc1ccc(Cl)cc1 | inconclusive [inhibitor, single point] | 
COc1ccc(N(C(=O)c2ccc3c(c2)OCO3)C2C=CS(=O)(=O)C2)c(OC)c1 (stereo unspecified) | inactive | 
OC1(c2cccnc2)CCN(Cc2ccc3c(c2)CN(Cc2cc(F)ccc2F)CCO3)CC1 |  | inconclusive: -33.1% [inhibitor]
Cc1ccc(C(=O)NCC(=O)N2CCCN(C)CC2)cc1C | inactive | 
O=C(NNC(=O)c1cccc(S(=O)(=O)Nc2ccccc2F)c1)c1ccncc1 | inactive | 
CN(C(=O)c1cccc(NC(=O)Cc2ccc(NC(=O)C3CCCN(C(=O)CCc4ccccc4)C3)cc2)c1)C1CCCCC1 (stereo unspecified) | active: 16.4 µM | 
CCn1cc(/C=C/c2cc[n+](C)cc2)c2ccccc21 | active: 1.03 µM | 
